This experiment concerns the target T1, interleukin 6 receptor gp 80 (soluble Human Recombinant IL-6R) (human, UniProt P08887 20-355, limits assumed).
T1 sequence (looked up): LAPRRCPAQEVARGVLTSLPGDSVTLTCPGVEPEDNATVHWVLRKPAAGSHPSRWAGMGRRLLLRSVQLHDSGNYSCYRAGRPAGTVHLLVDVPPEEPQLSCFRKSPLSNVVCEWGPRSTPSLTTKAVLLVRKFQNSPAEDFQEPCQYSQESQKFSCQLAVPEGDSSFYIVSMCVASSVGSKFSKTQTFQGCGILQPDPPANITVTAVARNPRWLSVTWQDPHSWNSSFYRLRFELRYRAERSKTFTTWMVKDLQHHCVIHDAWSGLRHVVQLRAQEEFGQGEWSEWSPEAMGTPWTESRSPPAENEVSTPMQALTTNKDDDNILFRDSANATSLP
Nature of the experiment: cell-based or functional assay.

B1: IL-6 Tyr31Asp/Gly35Phe (ligand)
chain: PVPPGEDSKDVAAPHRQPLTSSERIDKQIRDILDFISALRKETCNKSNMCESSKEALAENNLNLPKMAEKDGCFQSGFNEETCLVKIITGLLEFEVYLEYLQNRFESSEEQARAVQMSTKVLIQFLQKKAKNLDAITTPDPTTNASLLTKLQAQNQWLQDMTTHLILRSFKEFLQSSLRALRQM
Take B1: the “antagonism of wild type interleukin 6 activity in tests on human hepatoma cells” value came out at 50 fold molar excess.

The values are drawn from patent EP0656117B1 (ISTITUTO DI RICERCHE DI BIOLOGIA MOLECOLARE P. ANGELETTI …, dated 2000).
